Reference: PubChem BioAssay AID1460 (National Center for Advancing Translational Sciences (NCATS), 2008)
“And” between values parts separate entries of the source, which are not always exact repeats. Equal values may be shown once. In all, about 270,000 compounds went through this assay and about 5,800 (2.1%) were called active. The inconclusive results got no clear call from the source; some entries with a clear call stand among them for comparison. Calls follow the shape of the dose curve; as a rule, active = well fitted inhibition curve with a large enough effect; inconclusive = small, poorly fitted or top-dose-only effect; inactive = flat fitted curve, though single readings scatter. Potencies of inconclusive entries are doubtful fits and often do not repeat.

Target: Microtubule-associated protein tau (Homo sapiens) (UniProt P10636)
Assay: qHTS for Inhibitors of Tau Fibril Formation, Thioflavin T Binding; also: nearly all actives have a fitted effect of over 55% in size
Details: recombinant tau K18 P301L (four-repeat tau fragment), heparin-induced fibrillization, ThT fluorescence; series mostly up to 57.4 µM
Summary of the method: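 Heparin-induced (20 uM) aggregation of recombinant human K18 P301L tau, 15 uM unlabeled with 0.24 uM labeled, pH 7 acetate buffer, 6 hr at 37 C with compound. Fibrils quantified by 30 uM ThT fluorescence after 1 hr ambient incubation.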
Potency is read from the fitted curve at half-maximal effect; tags tell the direction and shape of the fitted curve.

Chain of UniProt P10636 (P10636 whole entry, looked up): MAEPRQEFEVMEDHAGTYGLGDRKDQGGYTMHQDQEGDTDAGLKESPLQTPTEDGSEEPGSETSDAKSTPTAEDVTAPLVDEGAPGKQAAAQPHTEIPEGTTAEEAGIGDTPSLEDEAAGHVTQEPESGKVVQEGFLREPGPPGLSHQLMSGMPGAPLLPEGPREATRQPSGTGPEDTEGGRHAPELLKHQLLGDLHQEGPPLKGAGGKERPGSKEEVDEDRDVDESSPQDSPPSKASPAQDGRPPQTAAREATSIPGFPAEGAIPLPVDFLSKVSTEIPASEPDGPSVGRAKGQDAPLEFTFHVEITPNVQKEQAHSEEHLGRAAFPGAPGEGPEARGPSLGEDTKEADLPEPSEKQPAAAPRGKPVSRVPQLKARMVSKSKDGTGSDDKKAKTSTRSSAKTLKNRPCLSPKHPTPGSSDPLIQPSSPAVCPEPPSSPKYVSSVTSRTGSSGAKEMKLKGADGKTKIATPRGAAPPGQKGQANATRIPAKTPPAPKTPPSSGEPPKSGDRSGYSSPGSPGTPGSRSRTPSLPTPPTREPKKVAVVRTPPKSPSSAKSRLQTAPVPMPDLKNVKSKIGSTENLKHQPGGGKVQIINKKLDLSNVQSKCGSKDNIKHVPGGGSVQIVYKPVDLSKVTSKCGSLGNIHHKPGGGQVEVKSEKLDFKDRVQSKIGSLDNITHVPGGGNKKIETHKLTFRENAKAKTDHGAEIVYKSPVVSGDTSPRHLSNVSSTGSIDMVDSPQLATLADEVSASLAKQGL

SMILES | Potency
CC(C)(C=O)C1=CC(=O)c2ccccc2C1=O | active: 8.91 µM
Cc1cc(C)n2nc(C(=O)NC3CCCc4ccccc43)nc2n1 (centres undefined) | inactive
O=C(CN1CCc2ccccc21)NCc1ccc2c(c1)OCO2 | inactive
O=C1OC(/C=C/c2ccc(Cl)cc2Cl)=NC/1=C\c1cccs1 | inconclusive: 14.1 µM [inhibitor, partial curve]
Cc1cc(-c2csc(NC(=O)c3ccc(C#N)cc3)n2)c(C)n1Cc1ccccc1 | inconclusive: 7.08 µM [inhibitor, partial curve]
CCN=c1scc(C)n1/N=C/c1ccsc1 | inconclusive: 7.08 µM [inhibitor, full curve, poor fit]
O=C(c1ccc(-c2cccc(Cl)c2)o1)N1CCN(c2ccc([N+](=O)[O-])cc2)CC1 | inconclusive: 0.562 µM [inhibitor, full curve]
CN(C)C(=O)c1ccc(COc2ccccc2Br)o1 | inactive
OC(CSc1ccccc1Cl)CN1CCN(c2ccc(F)cc2)CC1 (centres undefined) | inconclusive: 17.8 µM [inhibitor, partial curve]
CCOC(=O)/C=C/C(=O)Nc1ccc(S(=O)(=O)Nc2c(C)cc(C)cc2C)cc1 | inactive
Cc1ccccc1OCc1ccc(-c2nc(C#N)c(NCc3cccnc3)o2)o1 | inconclusive: 31.6 µM [inhibitor, single point]
CCOc1cc(/C=C(\C#N)C(=O)NCC2CCCO2)ccc1O (centres undefined) | inconclusive: 22.4 µM [inhibitor, single point]
O=C(N/C(=C\c1ccc([N+](=O)[O-])cc1)C(=O)N1CCCCC1)c1ccccc1 | inactive
CCN(CC)CCNS(=O)(=O)c1ccc(Cl)cc1 | inactive
COc1ccc(OC)c(CNC(=O)C(C)n2c(C)c3cnn(-c4ccccc4)c(=O)c3c2C)c1 (centres undefined) | inactive
N.N.O=C(O)C1(C(=O)O)CCC1.[Pt] | active: 4.47 µM and active: 3.16 µM
CCOC(=O)c1ccc(NC(=O)CC2Sc3ncnn3C2=O)cc1 (centres undefined) | inconclusive: 22.4 µM [inhibitor, single point]
COc1cc2cc[n+]3cc4c(OC)c(OC)ccc4cc3c2cc1OC | inconclusive: 31.6 µM [inhibitor, partial curve]
O=C(CSc1nnc(-c2ccccc2Br)o1)N1CCc2ccccc2C1 | inconclusive: 7.94 µM [inhibitor, partial curve]
O=C(CCc1ccccc1)NNC(=S)NC(=O)c1ccccc1 | inactive
Cc1cc(C(=O)COc2ccc(F)cc2Br)c(C)n1C | inconclusive: 5.01 µM [inhibitor, partial curve]
CCC(C)(C)C1CCC(=NNC(=S)Nc2ccccc2)CC1 (centres undefined) | inconclusive: 28.2 µM [inhibitor, partial curve]
Cc1ccc(NC(=O)c2ccoc2C)cc1C | inactive
CCOC(=O)C1=C(c2ccccc2)NC(SC)=C(C#N)C1c1ccco1 (centres undefined) | inactive
CCc1ccc(C(=O)c2cn(CC(=O)Nc3ccc4c(c3)OCO4)c3ccc(OC)cc3c2=O)cc1 | inconclusive: 22.4 µM [inhibitor, single point]

SMILES | Potency
COc1ccccc1NC(=O)CSc1nc(-c2ccc(C(C)(C)C)cc2)c(C#N)c(=O)[nH]1 | inconclusive: 31.6 µM [inhibitor, single point]
Cc1cccc(N2CCN(CCNC(=O)Nc3ccc(Cl)cc3)CC2)c1C | inconclusive: 20 µM [inhibitor, partial curve]
CN(C)c1ccc(N=Nc2ccc(S(=O)(=O)O)cc2)c2ccccc12 | active: 5.01 µM
O=C(NCCn1ccc2ccccc21)c1ccc(Cl)cc1 | inconclusive: 39.8 µM [inhibitor, single point]
CCc1cccc(-n2c(=O)c3cccnc3n2CC(=O)Nc2ccc(F)c(C)c2)c1 | inactive
Cc1ccc2c(c1)C1CN(C)CCC1N2Sc1ccccc1[N+](=O)[O-] (centres undefined) | inconclusive: 10 µM [inhibitor, partial curve]
COc1ccc(/C(O)=C2\C(=O)C(=O)N(c3cc(C)on3)C2c2ccccc2OC)cc1C (centres undefined) | inconclusive: 35.5 µM [inhibitor, single point]
CCC(NC(=O)OC(C)(C)C)C(=O)Oc1ccc2c3c(c(=O)oc2c1)CCC3 (centres undefined) | inconclusive: 39.8 µM [inhibitor, single point]
CCOc1cc(/C=N/Nc2nc3ccccc3[nH]2)cc(Br)c1OCC(=O)N(C)C | inconclusive: 11.2 µM [inhibitor, partial curve]
Cc1cccc(C(=O)NCN2CCN(c3ccccc3C#N)CC2)c1 | inactive
COC(=O)c1cc(COc2ccc3oc(C)c(C(=O)OC)c3c2)c(C)o1 | inconclusive: 22.4 µM [inhibitor, partial curve]
COc1cccc(C(=O)Nc2c(C(=O)N3CCN(c4ccc(F)cc4)CC3)oc3ccccc23)c1 | inconclusive: 39.8 µM [inhibitor, single point]
CCOc1cc(/C=C2/NC(=O)NC2=O)cc([N+](=O)[O-])c1O | inconclusive: 12.6 µM [inhibitor, partial curve]
COc1cccc(OC)c1C(=O)NC(=S)Nc1ccc2c(c1)Cc1ccccc1-2 | inconclusive: 4.47 µM [inhibitor, full curve, poor fit]
Brc1cccc(Cn2c(-c3cncs3)nc3ccccc32)c1 | inconclusive: 12.6 µM [inhibitor, partial curve]
Cc1nn(C)c(C)c1NC(=O)Nc1cccc(C(F)(F)F)c1 | inactive
N#Cc1cc2sc3nnc(-c4ccncc4)n3c2cc1C#N | inconclusive: 20 µM [inhibitor, partial curve]
CC1=CN2C(=N)/C(=C\c3cn(CCCOc4ccccc4)c4ccccc34)C(=O)N=C2S1 | inconclusive: 7.08 µM [inhibitor, partial curve]
NC1(C(=O)O)CCc2cc(C(=O)O)ccc21 (centres undefined) | inconclusive: 11.2 µM [inhibitor, partial curve]
Cc1ccc(C(CC(=O)O)Nc2nc(N3CCCCC3)nc(N3CCCCC3)n2)cc1 (centres undefined) | inconclusive: 39.8 µM [inhibitor, single point]
COc1ccc(C2SCC(=O)N2CCc2ccc(OC)c(OC)c2)cc1 (centres undefined) | inconclusive: 10 µM [inhibitor, partial curve, poor fit]
NC(CO)C(=O)NNCc1ccc(O)c(O)c1O (centres undefined) | active: 11.2 µM and active: 3.16 µM
CCOc1ccc2nc(NCCNC(=O)C3CC3)c(C)cc2c1 | inconclusive: 20 µM [inhibitor, partial curve]
O=C(NC1CCCC1)c1sc(=S)n2c1[nH]c(=O)c1ccccc12 | active: 15.8 µM
C=C1CCC2C(CC2(C)C)C(=O)CCC1O (centres undefined) | inactive

SMILES | Potency
COc1ccc(/C=C/C(=O)Nc2nc3n(n2)C(c2ccc(F)cc2)C=C(c2ccccc2)N3)cc1 (centres undefined) | inconclusive: 39.8 µM [inhibitor, single point]
COc1ccc(NC(=O)Cn2c(=O)n(Cc3nc(-c4ccccc4)no3)c(=O)c3ccccc32)cc1Cl | inconclusive: 8.91 µM [activator, partial curve]
CCC(=O)Nc1nc2ccccc2n1CCN(C)C | inactive
CC(=O)Oc1cc2cccc(OC(C)=O)c(=O)c2c(OC(C)=O)c1OC(C)=O | active: 3.55 µM
CCOC(=O)Cc1nnc(NC(=O)c2ncn[nH]2)s1 | inactive
CSc1cccc(Nc2cc(C(=O)NCCCN(C)c3ccccc3)c3ccccc3n2)c1 | inactive
O=C(CSc1ccccn1)N/N=C/c1cc([N+](=O)[O-])ccc1O | inconclusive: 14.1 µM [inhibitor, partial curve]
COC(=O)c1c(NC(=O)CCNCc2ccco2)sc2c1CCC2 | inactive
Oc1ccc(CNc2ccccc2F)c2cccnc12 | inconclusive: 14.1 µM [inhibitor, partial curve]
Cn1c(=O)c2c(=O)cc(NNC(=O)CC#N)[nH]c2n(C)c1=O | inactive
Cn1c(N)nc2ccccc2c1=O | inactive
O=[N+]([O-])c1ccc(N2CCCCC2)s1 | inconclusive: 15.8 µM [inhibitor, partial curve]
Cc1ccc2nc(SCc3nc4c(cnn4-c4ccccc4)c(=O)[nH]3)[nH]c2c1 | inconclusive: 10 µM [inhibitor, partial curve]
CC(/C=N/NC(=O)c1cccs1)=C\c1ccco1 | inconclusive: 4.47 µM [inhibitor, full curve]
CSc1ccccc1NC(=O)COc1ccc(Cl)cc1 | inconclusive: 17.8 µM [inhibitor, partial curve]
COc1cc(/C=C2\SC(=S)N(NS(=O)(=O)c3ccc(C)cc3)C2=O)ccc1O | active: 10 µM
CCc1cccc(N2C(=O)CSC23C(=O)Nc2ccccc23)c1 (centres undefined) | inactive
COc1ccccc1-c1cc(-c2ccc(C)cc2)nc(SCc2nnc(-c3ccccc3)o2)c1C#N | inactive
CC(C)(O)C1=NOC(c2ccccc2)C1 (centres undefined) | inactive
O=C(O)C1CC=CCC1C(=O)N1CCN(c2nc(-c3ccccc3Cl)c3cc(Br)ccc3n2)CC1 (centres undefined) | inconclusive: 20 µM [inhibitor, single point]
Cc1nc(-c2cccc(NS(C)(=O)=O)c2)cs1 | inactive
Cc1cc(C)c(NC(=O)Cn2cnc3c(oc4ccccc43)c2=O)c(C)c1 | inconclusive: 39.8 µM [activator, single point]
Clc1ccc(Cn2c(/C=C/c3ccco3)nc3ccccc32)cc1 | inconclusive: 28.2 µM [inhibitor, single point]
O=C(Nc1sc2c(c1-c1nc3ccccc3[nH]1)CCCC2)C1CC1 | inconclusive: 14.1 µM [inhibitor, partial curve, poor fit]
